# Reference: PMC4336329 (PLoS ONE, 2015)
# The campaign covered roughly 310,000 compounds. About 2,200 (0.71%) showed an effect of 50% or more. The effect is printed as a negative number. The list shows a part of the results.
# Target: human ether-à-go-go-related gene (hERG) potassium channel (human, UniProt Q12809)
# Assay: primary screen, population patch clamp on CHO cells stably expressing hERG
# Chain of human ether-à-go-go-related gene (hERG) potassium channel (Q12809 whole entry, looked up): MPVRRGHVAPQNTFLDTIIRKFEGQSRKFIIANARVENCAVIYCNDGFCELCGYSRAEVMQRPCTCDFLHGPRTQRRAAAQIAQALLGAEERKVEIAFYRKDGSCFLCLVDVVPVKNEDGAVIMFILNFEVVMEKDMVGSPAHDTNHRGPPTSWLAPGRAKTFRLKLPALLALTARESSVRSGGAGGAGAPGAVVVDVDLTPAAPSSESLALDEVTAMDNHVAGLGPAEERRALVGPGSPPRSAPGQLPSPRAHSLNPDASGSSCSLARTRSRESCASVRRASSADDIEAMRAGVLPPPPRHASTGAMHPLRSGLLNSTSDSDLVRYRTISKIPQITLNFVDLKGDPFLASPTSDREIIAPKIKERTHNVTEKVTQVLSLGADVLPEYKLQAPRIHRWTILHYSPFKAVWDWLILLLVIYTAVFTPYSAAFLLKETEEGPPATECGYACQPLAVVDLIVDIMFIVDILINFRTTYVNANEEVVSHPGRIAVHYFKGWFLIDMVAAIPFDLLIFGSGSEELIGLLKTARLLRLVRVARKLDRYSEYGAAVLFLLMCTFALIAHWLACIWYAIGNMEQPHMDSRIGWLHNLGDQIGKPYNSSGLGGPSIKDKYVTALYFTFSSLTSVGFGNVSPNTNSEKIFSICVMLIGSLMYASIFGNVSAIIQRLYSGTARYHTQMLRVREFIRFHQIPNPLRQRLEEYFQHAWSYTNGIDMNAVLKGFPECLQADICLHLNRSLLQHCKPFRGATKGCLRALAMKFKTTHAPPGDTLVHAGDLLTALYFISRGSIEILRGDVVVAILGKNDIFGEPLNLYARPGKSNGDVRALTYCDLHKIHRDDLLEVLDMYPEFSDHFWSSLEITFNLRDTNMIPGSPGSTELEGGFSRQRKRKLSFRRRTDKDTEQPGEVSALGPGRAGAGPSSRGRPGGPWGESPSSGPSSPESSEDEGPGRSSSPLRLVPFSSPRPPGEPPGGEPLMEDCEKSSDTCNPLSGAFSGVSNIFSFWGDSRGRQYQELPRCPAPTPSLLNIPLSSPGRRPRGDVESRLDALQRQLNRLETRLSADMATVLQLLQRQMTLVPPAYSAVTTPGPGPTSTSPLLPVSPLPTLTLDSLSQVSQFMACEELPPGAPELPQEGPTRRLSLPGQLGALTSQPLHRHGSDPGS
row,SMILES,"hERG current change (%, negative = inhibition) at 1uM"
1,Cc1cc(C)n(NC(=S)NC2CCCCC2)c(=O)c1C#N,14.2%
2,COCC(C)NC(=O)c1cccc(Cl)c1 (stereo not shown),19.2%
3,O=C(c1ccccc1F)N1CCN(S(=O)(=O)c2ccc3c(c2)OCCO3)CC1,-5.24%
4,Cc1nn(CC(=O)O)c(C)c1C,5.74%
5,O=C(CCc1nnc2ccc(N3CCC4(CC3)OCCO4)nn12)N1CCCCC1,14%
6,Cc1cc(C)n(-c2nc(C)nc(NCc3ccccc3)n2)n1,-61.6%
7,Nn1c(SCC(=O)NC2CCCCC2)nnc1-c1ccccc1F,8.78%
8,O=C(Nc1ccccc1C(=O)Nc1ccc(Cl)cc1)c1cccnc1,9.07%
9,CCOc1ccc(N(CC(=O)Nc2ccc(Br)cc2)S(C)(=O)=O)cc1,10%
10,COCCNS(=O)(=O)c1ccc(C)c(C)c1C,6.58%
11,Cc1cc(=O)oc2cc(OCC3CC(c4ccccc4)=NO3)ccc12 (stereo not shown),-5.82%
12,S=C(NCCN1CCOCC1)N/N=C/c1ccccc1,7.71%
13,O=C(CSc1ccc(-c2cccnc2)nn1)N1CCCC1,5.56%
14,CC(=O)c1c(C(C)=O)c(C)n(Cc2ccccc2)c1C,3.29%
15,CC(=O)c1ccc2c(c1)OCCOCCOc1ccc(C(C)=O)cc1OCCOCCO2,-84.8%
16,Cc1ccc(C(=O)NNC(=O)CSc2nc(N)cc(N)n2)cc1,8.99%
17,CCC(C(=O)OCC(=O)Nc1cc(C)ccc1OC)c1ccccc1 (stereo not shown),14.2%
18,Cc1nc2c(S(=O)(=O)c3ccccc3)cnn2c(C)c1C,17.2%
19,O=[N+]([O-])c1ccc2[nH]nc(-c3ccccc3)c2c1,14.6%
20,CCOC(=O)N1CCC(Nc2ccc(N3C(=O)C4CCCCC4C3=O)cc2[N+](=O)[O-])CC1 (stereo not shown),10.4%

row,SMILES,"hERG current change (%, negative = inhibition) at 1uM"
1,CCn1c(SCC(N)=O)nnc1-c1ccc2[nH]c(C)c(C)c2c1,2.32%
2,O=C(CSc1nnc(-c2ccco2)c(-c2ccco2)n1)Nc1ccccc1,-34.1%
3,CCOc1ccc(/C=C/c2c([N+](=O)[O-])c(=O)n(C)c(=O)n2C)cc1,9.27%
4,Cc1ccc(C(=O)N2CCc3ccccc32)cc1[N+](=O)[O-],2.67%
5,CCCCn1c(O)c(C(CC)=NCCCN(C)C)c(=O)[nH]c1=O,2%
6,Cc1ccc2c(c1)N(CC(=O)O)C(=O)CO2,-4.9%
7,CCN(CC)CCCN1C(=O)C(=O)/C(=C(/O)c2ccc(C)cc2)C1c1ccccn1 (stereo not shown),7.98%
8,O=C(Nc1nnc(-c2cccs2)s1)C1CC1,6.41%
9,CCOC(=O)COc1ccc(S(=O)(=O)NCC2CCCO2)cc1 (stereo not shown),7.87%
10,O=C(CSc1nnc(-c2ccco2)n1Cc1ccco1)N1CCOCC1,-1.32%
11,CCO[C@H]1OC(C(=O)NC2CC2)=C[C@@H](c2c[nH]c3ccccc23)[C@@H]1CCCO,14.3%
12,CC(C)(C)C(=O)N1CCN(c2nc3ccc(Br)cc3s2)CC1,15.4%
13,Nc1nnnn1/N=C/c1cccc(Oc2ccccc2)c1,15.1%
14,O=C(Nc1ccccc1C(=O)OC1CCOC1=O)c1ccco1 (stereo not shown),-8.74%
15,CCCC1(CCC)C(=O)NC(=Nc2ccccc2)NC1=O,11.7%
16,CCN(CC)CCn1c(N)c(S(=O)(=O)c2ccccc2)c2nc3ccccc3nc21,-7.1%
17,CN1C(=O)C2(c3ccccc31)N(C)CC(c1ccccn1)C21SC(=S)N(Cc2ccco2)C1=O (stereo not shown),4.55%
18,Cc1cc2nc(CCN(Cc3cccnc3)C(=S)Nc3ccccc3)[nH]c2cc1C,-6.23%
19,COc1ccc(CCn2c(O)c(C=NCCCO)c(=O)[nH]c2=O)cc1OC,11.3%
20,COc1cccc(C(=O)COc2ccc3ccc(=O)oc3c2)c1,4.41%

row,SMILES,"hERG current change (%, negative = inhibition) at 1uM"
1,COc1cc(C(=O)Nc2nc3ccccc3[nH]2)ccc1OC(F)F,-0.921%
2,COc1ccccc1OCC(=O)Nc1ccc(S(=O)(=O)Nc2cc(C)nc(C)n2)cc1,11.9%
3,O=C(Nc1ccc(Cl)c(Cl)c1)N1CCSCC1,2.27%
4,C=CCn1c(=O)c2c(nc(-c3ccc(S(=O)(=O)O)cc3)n2C)n(C)c1=O,15.1%
5,CC(=O)Oc1ccc2c(=O)c(Oc3ccccc3)c(C)oc2c1OC(C)=O,12.7%
6,COc1cccc(C(=O)Oc2cc(C)[nH]c(=O)c2[N+](=O)[O-])c1,4.45%
7,Cc1cc(C(=O)CSc2nnnn2C)c(C)n1-c1ccc2c(c1)OCCO2,0.31%
8,Cc1ccc(SCC(=O)NC(=O)NCc2ccccc2)c(C)c1,11.1%
9,CCCCCn1c(=O)c(C(=O)Nc2nc3ccccc3[nH]2)c(O)c2ccccc21,12.6%
10,CN1CCN(C(=O)c2ccc3c(=O)n(-c4ccc(F)cc4)c(=S)[nH]c3c2)CC1,11.4%
11,O=C(NCc1ccc2c(c1)OCO2)c1ccc(N2CCCCCC2)c([N+](=O)[O-])c1,14.8%
12,CC(=O)N/C(=C\c1ccc(Cl)cc1)C(=O)O,15.2%
13,COc1ccccc1CNC(=O)COC(=O)/C=C/c1ccc(OC(F)F)c(OC)c1,4.73%
14,COc1ccc(S(=O)(=O)N2CCOCC2)cc1NC(=O)c1ccncc1,4.74%
15,COc1ccc(CNC(=O)C(NC(C)=O)C(=O)Nc2ccc(OC)cc2)cc1 (stereo not shown),12.9%
16,COc1ccc(-c2csc(=Nc3ccccc3)n2CCO)cc1,17.8%
17,COc1cc(C(=O)NCC(=O)NCCSc2ccc(Br)cc2)cc(OC)c1OC,10.5%
18,O=C(c1ccco1)N1CCN(S(=O)(=O)c2ccc(Br)cc2)CC1,9%
